These results are taken from the supplement of paper PMC11417369.

± gives the standard deviation of the averaged measurements. The list shows a part of the results.

The test system of the assay is PfAP2-EXP AP2 domain (GST-tagged). Briefly: gcPBM binding intensity (ln(normalized median fluorescence intensity)); higher = stronger DNA binding. The gist of the method: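 Probes on an Agilent 4 × 180k array were primer-extended, double-stranded and 36 bp long, taken from intergenic genomic regions, with negative controls added. GST-tagged P. falciparum DNA-binding domains from E. coli, about 25 μg on average, were applied to the array for 1 h in 1× PBS containing 1% milk, 0.2 mg/ml BSA, 0.5% salmon testes DNA and 0.03% Triton X-100. Binding intensity, obtained after Alexa488 anti-GST antibody detection and a 488 nm scan, is the highest Masliner-normalised natural-log median intensity across replicate spots of either probe orientation.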
“TATTTATAAATTTACACACACACATGGGAACATAAA [CACACA_site5111]”: the “gcPBM binding intensity (ln)” value worked out at 8.98 ± 0.43. Under “ATAAAAATTGATTATACACACGCGCACCCACAACAA [CACACA_site3536]” stands 9.205 ± 0.049. Under “TAAGGATAAATAAAATGAAATGAAATAAATAAATGA [XGTACX_negctrl_site539]” stands 8.62 ± 0.46; under “TATATATATCAGCAATGTACACAATGCATATTATAT [XGTACX_site4836]”, 8.38 ± 0.24. With “TTATTTTATTTTAAAAAAAACAATATAAATTCAAAG [GTGCAC_negctrl_site57]”, the “gcPBM binding intensity (ln)” value worked out at 8.19 ± 0.39. As for “TCTACAATTATAATTACACACTATAAAAAAGAAAGA [CACACA_site2984]”, the “gcPBM binding intensity (ln)” value came out at 8.78 ± 0.41. Regarding “ATTTTTTTTTTTTTTTTTTTTTTTTTTTGATTTGTG [CACACA_negctrl_site1391]”, the “gcPBM binding intensity (ln)” value came to 7.84 ± 0.53. The result for “AAAAATAGGAACCAATATCCAACGTGACTTTATAAT [CACACA_negctrl_site1011]” reads 8.6 ± 0.48.

As for “AAAATAATTATGAATTGTACAGGTTTTTTTTTTTTT [XGTACX_site220]”, the “gcPBM binding intensity (ln)” value worked out at 8.36 ± 0.33. The result for “GGAAAAAAAAAAAAAAAACACACGGTACATTCAAAC [CACACA_site2715]” reads 8.79 ± 0.65. Take “AAAAAATTTTTAAGCACACACATAGATAATATATAT [CACACA_site1555]”: the “gcPBM binding intensity (ln)” value worked out at 8.93 ± 0.37. As to “ATATATTTTCAAAAAAGTAAATCAAAATAAATATAT [TGCATGCA_negctrl_site319]”, the “gcPBM binding intensity (ln)” value worked out at 8.62 ± 0.25.

In the case of “TCCAAATACAACTACACACAAACAAAAATTATATAT [CACACA_site881]”, the “gcPBM binding intensity (ln)” value came to 8.67 ± 0.57.

On to “TATAAAAATATATTTACACACTATATATATCGAAAG [CACACA_site1700]”, for which the “gcPBM binding intensity (ln)” value is 8.52 ± 0.38.

Take “ATGGTTTAGTTATATACACACTCGAAAATAACGACA [CACACA_site7520]”: the “gcPBM binding intensity (ln)” value worked out at 8.6 ± 0.49.

As for “AAATAAAATTTTATGTGTACGCAAAAAGTTGTAAGC [XGTACX_site8911]”, the “gcPBM binding intensity (ln)” value worked out at 9.13 ± 0.35.

Take “TTAAAATTAATTCACCAGTATTAAAATAAAAACGAA [CACACA_negctrl_site1428]”: the “gcPBM binding intensity (ln)” value worked out at 8.73 ± 0.42.

Turning to “TTTTTTTTAAGAGATAGTACATAAATATTATAATAT [XGTACX_site4685]”, the “gcPBM binding intensity (ln)” value is 8.47 ± 0.4. The result for “AAAATTTTTCTTAAAGCATGCACAATTAAGAAGACG [TGCATGCA_site883]” reads 9.54 ± 0.55; that for “ATATTAATATATATGTTTTATTACCATTTTATGTAT [CACACA_negctrl_site1761]”, 8.6 ± 0.48; that for “AAGATATATATAGAAAGTACTTATATTTGTATAATT [XGTACX_site8855]”, 8.62 ± 0.24. Under “TACAATCTAAAATACACACACACAAACATATATTTA [CACACA_site3702]” stands 8.52 ± 0.48; under “TGAAAAAATATAAAATATAAAATAAAAAATATAAAA [GTGCAC_negctrl_site536]”, 8.38 ± 0.41. In the case of “AATAAATAAATATATACACACATATATATATAATAT [CACACA_site921]”, the “gcPBM binding intensity (ln)” value was 8.29 ± 0.21. Turning to “TTAAAAATATATATAACACACACATAATATATATAT [CACACA_site8811]”, the “gcPBM binding intensity (ln)” value was found to be 9.4 ± 0.13. For the sequence “TATTTTTATTTAGGACGTACAAAAATAAATCATATT [XGTACX_site1448]”, the “gcPBM binding intensity (ln)” value was found to be 8.57 ± 0.2. Under “TTTTTTTTTCCCGTAAATATTGAGACAACCATAATG [CACACA_negctrl_site41]” stands 8.39 ± 0.4; under “TTAGAAACATTGAAAGCATGCAATATTACTTTATAC [TGCATGCA_site522]”, 9.13 ± 0.33; under “TCCTTATATTTGCACACACACACAAGAAAATGAAAA [CACACA_site6613]”, 8.85 ± 0.27. The result for “TATAAATATTACGGTAGTACTATACATATATATAAT [XGTACX_site7442]” reads 8.6 ± 0.23; that for “CATATAAAAAGACACACACACACATATATATATATA [CACACA_site940]”, 10.3 ± 0.18; that for “TATATATTCAAATGTGCATGTAAAAAAAAAAAAAAG [TGCATGCA_site126]”, 9.03 ± 0.18. The result for “TAACCATACATACATACACACACACCCACATATATA [CACACA_site8951]” reads 8.8 ± 0.78; that for “ATAAAAAACTCAGAGCGTACATAATTTTTTCTATTT [XGTACX_site2803]”, 8.44 ± 0.4; that for “TCCCTAGTATACCTTAGTACATATATTATTTTGCAC [XGTACX_site2174]”, 8.98 ± 0.11.

Consider “AGACATTAATGAAGGTGTACATATATTTGACAGAAT [XGTACX_site655]”, for which the “gcPBM binding intensity (ln)” value worked out at 9 ± 0.47.

On to “GGCATATATATATGCACACATACATAAATACATGTG [CACACA_site5999]”, for which the “gcPBM binding intensity (ln)” value was found to be 8.805 ± 0.035. Under CAGGAGAGTAAAAGAGTGCGAATTATTATTTTGGAG stands 8.76 ± 0.36; under “TCATTCATATGTTACACACACACACGCACATAAAAA [CACACA_site7514]”, 8.85 ± 0.45. Under “TATATAATATAATTGACATGCAACCATTTTCGTGAA [TGCATGCA_site458]” stands 9 ± 0.2. Under “AAGTTGGAAAGGTTATGTACTTATTTTTTAAAATAA [XGTACX_site204]” stands 8.27 ± 0.45. In the case of “TGTTTAAAGGAAAAGGAGTAGTCTATTATATTATCT [CACACA_negctrl_site858]”, the “gcPBM binding intensity (ln)” value was 8.38 ± 0.23. Under “GATTTACAACACGAACGTACAGAACAAAAAGGAAAA [XGTACX_site6501]” stands 8.96 ± 0.49; under “ATCTATATCTATAATACACACTAAAGTAACAGAATA [CACACA_site7370]”, 8.72 ± 0.42. In the case of “GTATCTCATTATTCGTGTACTAAACACATAAAAATA [XGTACX_site2262]”, the “gcPBM binding intensity (ln)” value was 8.74 ± 0.2. The result for “TATAAAAATAAAAAAAGTACACATAAAAATATATAT [XGTACX_site5189]” reads 8.77 ± 0.33. Under “AATGTAAAAGTAAACACACACATATATATATACATA [CACACA_site2484]” stands 8.75 ± 0.49; under “CATATATACACATACACACACACACGGACACGCACA [CACACA_site6910]”, 8.87 ± 0.53.

In the case of “TATTGTATTTAATAAACACACAATATTAAAAATATA [CACACA_site4725]”, the “gcPBM binding intensity (ln)” value stood at 8.16 ± 0.3. In the case of “ATACACATATATGTGTGTACTCACCTTTTAATATGA [XGTACX_site4349]”, the “gcPBM binding intensity (ln)” value worked out at 8.46 ± 0.29. Under “GGAATACAGGAAAAAAGTACAGAAAATGGAATATTA [XGTACX_site5053]” stands 8.97 ± 0.45; under “TCTTTCTTATATTTATATAATTATATTTATTTTATA [GTGCAC_negctrl_site300]”, 8.74 ± 0.38; under “TTTAATTTGTTATACACACACAAAAAAAGTTATAAA [CACACA_site7779]”, 8.45 ± 0.42. The result for “ATATAATGTTATAGAAGTACATGAAATACTTATTTA [XGTACX_site8850]” reads 8.16 ± 0.25; that for “AACAATATATTGAATAGTACATATATATAAACATAT [XGTACX_site2811]”, 8.6 ± 0.37; that for “AAAATAAAATAACGTTGTACAACATCATTTCTATAT [XGTACX_site5080]”, 8.45 ± 0.37.
